In PubChem BioAssay AID1645882 (National Center for Advancing Translational Sciences (NCATS), 2021):
Hit rate of the full screen: of about 16,000 compounds, about 120 (0.75%) were called active. Not shown: some 4% with an inconclusive outcome. Calls follow the shape of the dose curve; as a rule, active = well fitted inhibition curve with a large enough effect; inconclusive = small, poorly fitted or top-dose-only effect; inactive = no such curve, though single readings can be large or run the other way. Some of the results follow. Where a SMILES comes first, the peptide text is derived from it. The star is where a group is joined. Cbz = O=C(OCc1ccccc1)*

Biological target: Rap guanine nucleotide exchange factor 3 (Homo sapiens) (UniProt O95398)
Assay: Validation qHTS for antagonist of cAMP-regulated guanine nucleotide exchange factor 3 (EPAC1); also: nearly all actives have a fitted effect of over 75% in size
Conditions: EPAC1 Rap1B-BODIPY-GDP exchange, fluorescence; series mostly up to 150 µM; activity change, negative = inhibition: at the top concentration
Method in brief: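 EPAC1 (100 nM) mixed with 250 nM RAP1B-BODIPY-GDP and 50 uM GDP; compounds in concentration series, 5 min at room temperature. Fluorescence (ex 480/em 540 nm) read every 5 min for 30 min; normalized to ATA control and DMSO.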

Sequence of UniProt O95398 (O95398 whole entry, looked up): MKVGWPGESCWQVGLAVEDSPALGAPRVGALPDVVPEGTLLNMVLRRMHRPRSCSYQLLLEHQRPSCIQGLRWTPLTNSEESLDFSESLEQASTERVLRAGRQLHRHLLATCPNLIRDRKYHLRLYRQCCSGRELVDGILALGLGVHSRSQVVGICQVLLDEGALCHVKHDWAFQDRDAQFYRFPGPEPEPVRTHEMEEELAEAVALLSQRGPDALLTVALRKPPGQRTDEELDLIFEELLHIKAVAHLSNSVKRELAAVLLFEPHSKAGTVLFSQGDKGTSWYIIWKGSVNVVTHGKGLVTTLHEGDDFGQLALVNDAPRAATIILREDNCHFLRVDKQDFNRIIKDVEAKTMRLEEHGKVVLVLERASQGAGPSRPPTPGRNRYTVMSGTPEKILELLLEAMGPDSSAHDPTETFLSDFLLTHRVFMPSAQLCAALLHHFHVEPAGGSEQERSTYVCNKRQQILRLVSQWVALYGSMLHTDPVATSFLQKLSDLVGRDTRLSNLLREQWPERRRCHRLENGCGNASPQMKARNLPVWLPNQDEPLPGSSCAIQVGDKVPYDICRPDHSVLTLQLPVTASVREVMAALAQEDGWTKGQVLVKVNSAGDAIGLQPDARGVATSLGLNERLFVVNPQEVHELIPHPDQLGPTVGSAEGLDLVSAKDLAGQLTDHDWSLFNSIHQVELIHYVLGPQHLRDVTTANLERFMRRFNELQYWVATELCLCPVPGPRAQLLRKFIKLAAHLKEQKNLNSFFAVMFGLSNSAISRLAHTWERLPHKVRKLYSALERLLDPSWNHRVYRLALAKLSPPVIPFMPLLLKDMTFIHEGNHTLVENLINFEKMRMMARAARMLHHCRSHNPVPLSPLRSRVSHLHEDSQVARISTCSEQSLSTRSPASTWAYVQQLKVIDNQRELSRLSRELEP

Activity change, negative = inhibition, inactive:
NC(C(=O)O)C(O)C(=O)O (stereo not drawn) 12.2%
Cc1csc(C)[n+]1CCC1CCCCC1 8.71%
O=C1C2=C(S[C@@H]3O[C@H](CO)[C@@H](O)[C@H](O)[C@H]3O2)C(=O)c2ccccc21 3.85%
CN(C)c1nc(-c2cccnc2)nc2ccccc12 -15%
O=C(O)c1cc(O)c2c(c1)[O][Bi][O]2 8.54%
O=C(c1cccc(F)c1)N1CCC2(CC1)CN(c1ncccn1)C2 6.06%
COC(=O)C[C@](O)(CCCC(C)(C)O)C(=O)O[C@@H]1C(OC)=CC23CCCN2CCc2cc4c(cc2[C@H]13)OCO4 (stereo partly drawn) 23.6%
O=c1oc(Cl)c(Cl)c2ccccc12 6.94% [at 75.8 µM]
c1ccc(CNc2ccnc(-c3cccnc3)n2)cc1 -3.66%
O=C(NCc1ccccn1)c1cnn(-c2ncc3c(n2)-c2ccccc2CC3)c1C1CC1 10.3%
CC1=C(\C=C/C(C)=C/C=C\C(C)=C\C(=O)O)C(C)(C)CCC1
Cc1cc(-c2ccnc(-n3ncc(C(=O)NCC4CCCN(C)C4)c3C3CC3)n2)c(C)s1 (stereo not drawn) 2.46%
N[C@H]1C(O)O[C@H](CO)[C@@H](O)[C@@H]1O (stereo partly drawn) 20.1%
CN1C2CC(OC(=O)[C@H](CO)c3ccccc3)CC1C1OC12 (stereo partly drawn) -0.794% [at 75.8 µM]
COCC(=O)N1CCC2(CCN(Cc3ccncc3)CC2)CC1 12.9%
O=S1(=O)[C@H]2C[C@@H]3C=C[C@@]2(CN1Cc1cccc(F)c1)O3 15.7%
COc1cccc(-c2ccc3ncnc(NCCN4CCOCC4)c3c2)c1 4.01%
CN1CCN(c2ncc3nc(CCc4ccccc4)c(=O)n(Cc4ccc(F)cc4)c3n2)CC1 9.68%
C=C1C[C@H]2[C@@H]3C=C(C)C4=CC(=O)CC[C@]4(C)[C@H]3CC[C@]2(C)[C@@]1(OC(C)=O)C(C)=O 14%
C[C@H](N)CCP(=O)(O)O 32%
Cc1ccc(CNc2nc(CN3CCSCC3)nc3ccccc23)o1 11.3%
COCCN1CCN(C(=O)c2cnn(-c3nccc(-c4ccco4)n3)c2C(C)C)CC1 15.6%
CCCCN1CC[C@H]2C=CC[C@@H](C(=O)Nc3nccs3)[C@H]2C1=O 9.75%
Nc1ccn([C@H]2CS[C@@H](CO)O2)c(=O)n1 14.3%
Cc1nc2cc(NC(=O)C3CC34CCN(Cc3ccc(O)c(Cl)c3)CC4)ccc2s1 (stereo not drawn) 4.03%
COc1ncc2nc(-c3ccccc3)c(=O)n(C)c2n1 7.29%
COc1ccccc1CNc1nc(-c2cccc(C#N)c2)nc2ccccc12 -19.8%
CC(C)C[C@@H](C=O)NC(=O)[C@H](CC(C)C)NC(=O)[C@H](CC(C)C)NC(=O)OCc1ccccc1 (Cbz-Leu-Leu-Leu-aldehyde) 16.3%
COc1cc(OC)c(/C=C/c2ccccn2)c(OC)c1 23.8%
COc1ccc(C(C)N(C)Cc2nc(N3CCN(C(=O)c4ccco4)CC3)c3ccccc3n2)cc1 (stereo not drawn) -1.89%
NCCCCCCCCCCN -4.09% [at 75.8 µM]
Cc1ccnn1CC(=O)N1CCOc2c(cc(-c3csc4ccccc34)cc2OC2CCOC2)C1 (stereo not drawn) 5.15%
COc1ccccc1C(=O)N1CCOc2ccc(CN3CCN(Cc4ccccn4)CC3)cc2C1 18.4%
CCOC(=O)C(CCc1ccccc1)NC(C)C(=O)N1C(C(=O)O)CC2CCCC21 (stereo not drawn) 12.9%
COc1cc(/C=C/C(=O)O)cc(OC)c1OC 7.44%
Oc1cc(-c2cccs2)cc2c1OCCN(Cc1cn[nH]c1-c1ccc(Cl)cc1)C2 -16.3%
CC(=O)/C=C1\C(=O)N(C)c2ccccc21 -0.804% [at 75.8 µM]
CC(C)(C)[C@@H]1CCC(=O)N(CC[C@H](Sc2ccc(Br)cc2)c2ccccc2)CC1 2.73%
COc1ccc2[nH]c(C(O)C(O)c3nc4c(OC)c(OC)ccc4[nH]3)nc2c1OC (stereo not drawn) 16.7%
Cc1cnc(-n2ncc(C(=O)NCCc3cccnc3)c2C)nc1-c1cccs1 6.73%
OC[C@H]1O[C@@H](Oc2ccc(O)cc2)[C@H](O)[C@@H](O)[C@@H]1O 20.8%
Nc1ccc(S(=O)(=O)c2ccc(N)cc2)cc1
COc1ccc(OC)cc1 9.67%
OCCN1CCN(CCCN2c3ccccc3Sc3ccc(Cl)cc32)CC1
COc1ccc(-c2nc3cnc(Oc4ccccc4)nc3n(C3CC3)c2=O)cc1 11.8%
CN1CCCC2(CCN(C(=O)c3cccc(F)c3)CC2)C1 18.8%
CC(C)C(C)(C)C(C)(C)C(C)(C)S 11.2% [at 320 µM]
c1ccc(CNc2nc(-c3ccoc3)nc3ccccc23)cc1 -4.51%
COc1ccc2c(c1)c1c3n2CCN(C)C3=NCC1 9.42%
CN(C)CCc1c[nH]c2ccc(Cn3cncn3)cc12 22.9%
CCCC(=O)O[C@]1(C(=O)COC(C)=O)CC[C@H]2[C@@H]3C[C@H](F)C4=CC(=O)C=C[C@]4(C)[C@@]3(F)[C@@H](O)C[C@@]21C -4.63%
O=C(c1cccc(F)c1)N1CCC2(CC1)CN(Cc1ccccc1)C2 -6.25%
Cn1nnnc1SCC1=C(C(=O)O)N2C(=O)[C@@H](NC(=O)[C@H](O)c3ccccc3)[C@H]2SC1 18% [at 75.8 µM]
COCCn1c(=O)c(CCc2ccccc2)nc2cnc(Oc3ccc(OC)cc3)nc21 -4.13%
CS(=O)(=O)N1CCC2(CCN(Cc3nccs3)CC2)CC1 15.4%
Nc1ccc(C(=O)NCC(=O)O)cc1
COc1ccc(NS(=O)(=O)c2ccc(N)cc2)nn1
C#C[C@]1(O)CC[C@H]2[C@@H]3CCC4=Cc5oncc5CC4(C)[C@H]3CCC21C (stereo partly drawn) -1.09% [at 75.8 µM]
COc1ccccc1CN1CC2(CCN(C(=O)c3ccncc3)CC2)C1 15.5%
COc1ccc(-n2c(=O)cnc3cnc(N(C)C)nc32)cc1 11%
COC(=O)[C@@H]1CCCN1C(=O)c1c(OC)cc(=O)n2c1CCN(Cc1c(C)[nH]c3ccccc13)CC2 -3.83%
CC1(C)OC(=O)NC1=O 17.6%
CN(N=O)C(=O)N[C@H]1C(O)OC(CO)[C@@H](O)[C@H]1O (stereo partly drawn) -18%
O=c1c(-c2ccc(F)cc2)nc2cnc(N3CCNCC3)nc2n1Cc1ccc(F)cc1 4.17%
COc1ccc(NC(=O)N2CCCC3(CCN(C(=O)c4ccc(OC)cc4)CC3)C2)cc1 1.24%
N[C@@H](C(=O)O)c1ccc(C(=O)O)c(C(=O)O)c1 -4.03%
N#Cc1ccc(CN2CC[C@@]3(CCCN(C(=O)c4ccncc4)C3)C2)cc1 20.1%
O=Nc1c(-c2c(O)[nH]c3cc(Br)ccc23)[nH]c2ccccc12 -4% [at 75.8 µM]
